In all, about 76,000 compounds went through this assay and about 1,900 (2.5%) were called active. Inconclusive means that the source gave no clear call. Such entries were picked first, then a sample of the others. Calls come from the whole dose curve; as a rule, active = well fitted inhibition curve with a large enough effect; inconclusive = small, poorly fitted or top-dose-only effect; inactive = flat fitted curve, though single readings scatter. A potency beside an inconclusive call is a rough fit, not a confirmed value.
Each molecule was assayed against Luciferin 4-monooxygenase (Photinus pyralis) (UniProt P08659) (assay: Firefly luciferase inhibition profiling of diverse chemical library using quantitative high-throughput screening). Details: purified P. pyralis luciferase, luminescence, biochemical; series mostly up to 115 µM.
Chain of UniProt P08659 (P08659 whole entry, looked up): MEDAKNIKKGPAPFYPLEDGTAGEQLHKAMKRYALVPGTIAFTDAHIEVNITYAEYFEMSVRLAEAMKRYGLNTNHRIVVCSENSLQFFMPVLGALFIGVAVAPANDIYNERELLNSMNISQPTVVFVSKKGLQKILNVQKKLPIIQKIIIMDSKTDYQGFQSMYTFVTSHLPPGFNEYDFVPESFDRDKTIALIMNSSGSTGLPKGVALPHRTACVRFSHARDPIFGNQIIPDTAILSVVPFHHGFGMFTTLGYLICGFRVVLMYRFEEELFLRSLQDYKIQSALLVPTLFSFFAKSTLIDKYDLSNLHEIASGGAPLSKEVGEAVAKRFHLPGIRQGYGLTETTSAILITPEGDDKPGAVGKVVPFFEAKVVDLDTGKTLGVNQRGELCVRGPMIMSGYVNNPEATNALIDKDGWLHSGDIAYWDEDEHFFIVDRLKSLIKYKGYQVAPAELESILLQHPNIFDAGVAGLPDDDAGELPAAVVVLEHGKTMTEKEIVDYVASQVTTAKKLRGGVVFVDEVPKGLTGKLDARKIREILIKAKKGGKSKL
Summary of the method: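 Purified P. pyralis luciferase (10nM final) in 50mM Tris acetate pH 7.5, 10mM Mg acetate, 0.01% Tween-20, 0.05% BSA with 10uM D-luciferin and 10uM ATP. Compounds titrated qHTS. Luminescence imaged on CCD.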
Note: nearly all actives have a fitted effect of over 65% in size.
Potency is the fitted concentration of half-maximal effect; tags give direction and shape of the fitted curve.

Structure (SMILES)	Potency
Cc1ccc(C(=O)N2CCC(c3nc(-c4ccccc4)no3)C2)s1 (stereo not given)	inconclusive: 44.7 µM [inhibitor, partial curve]
CC(=O)Nc1cccc(-c2cc3c(cn2)CN(Cc2ccccc2)CCN3)c1	active: 14.1 µM
O=C(O)Cn1ccc2cc(OCC3CCN(C(=O)Cc4ccccc4)CC3)cnc21	inactive
O=C(NCc1ccccc1)c1cn(C2CN(C(=O)Nc3ccc4c(c3)OCCO4)C2)nn1	inconclusive: 50.1 µM [inhibitor, partial curve]
CC1(COc2ccc(-c3nc(COc4ccccc4)no3)cn2)CCCNC1 (stereo not given)	active: 35.5 µM
Cc1ccc(C(=O)N[C@H]2C[C@@H](c3nc(Cc4ccccc4)no3)N(C)C2)cc1	inconclusive: 79.4 µM [inhibitor, partial curve]
COc1ccc(CC(=O)N2CC[C@H](CO)[C@H](O)C2)c(OC)c1	inactive
O=C(Cc1ccc(F)cc1)N1CCC[C@H]1c1nc(-c2ccccc2)no1	inactive
O=C(Nc1cccc(C(F)(F)F)c1)c1nc2c(o1)CCN(Cc1cccc(F)c1)CC2	inconclusive: 50.1 µM [inhibitor, full curve]
C[S+](=O)([O-])CCn1ncc2cc(OCC3CCN(c4ncccn4)CC3)ccc21	active: 44.7 µM
COc1ccc(C(=O)N2CCCC(Cc3ncc(C)n3C(C)C)C2)cn1 (stereo not given)	inactive
O=C(c1ccccc1F)N1CC[C@H]2COC(=O)N2c2cc(F)ccc2C1	inactive
CCNC(=O)c1cccnc1OC1CCN(C(=O)CCCc2ccccc2)C1 (stereo not given)	inconclusive: 39.8 µM [inhibitor, partial curve]
Cc1ccc(CN2CCN(c3cc(C)nc(N)n3)CC2CCO)cc1 (stereo not given)	inactive
COc1cccc(-c2cc3c(=O)n(CCNC(=O)Cc4ccc(Cl)cc4)ccn3n2)c1	inconclusive: 3.55 µM [inhibitor, full curve, poor fit]
Cc1ccc(-c2nc(C(=O)NCc3ccc4c(c3)OCO4)no2)cc1	inconclusive: 28.2 µM [inhibitor, full curve]
O=C(c1cccs1)N1CCCN(c2cc(-c3ccc(Cl)cc3)[nH]n2)CC1	inconclusive: 50.1 µM [inhibitor, partial curve]
Cc1cc(Cl)ccc1S(=O)(=O)N(C)CC1CCOCC1	inactive
O=C(C1CCCC1)N1CCc2nc(-c3ccc(Cl)cc3)nc(-c3ccccc3)c2C1	inconclusive: 25.1 µM [inhibitor, partial curve]
CSCC(=O)N1CCCC(CCc2cccc(F)c2)C1 (stereo not given)	inconclusive: 35.5 µM [inhibitor, partial curve, poor fit]
CN(C)c1nccnc1OC1CCN(C(=O)c2ccn[nH]2)C1 (stereo not given)	active: 25.1 µM
O=C(NCCN1CCOCC1)c1ccc(-c2ccc(N3CCSCC3)nc2)cc1	inconclusive: 50.1 µM [inhibitor, partial curve]
C[C@]1(CO)[C@H]2Cc3sc(NC(=O)c4cccc(F)c4)nc3[C@@H](CC(=O)N3CCCCC3)[C@]2(C)CC[C@H]1O	inactive
COc1cccc(-c2cn3c(n2)N(C(=O)Cc2cccs2)CCC3)c1	inconclusive: 44.7 µM [inhibitor, partial curve]

Structure (SMILES)	Potency
CN1c2cc(C(=O)Nc3cc(F)cc(F)c3)ccc2C(=O)N2CCCCCC21 (stereo not given)	inconclusive: 0.631 µM [inhibitor, full curve]
COc1ccc(CN2CCc3oc(C)c(C(=O)N4CCN(C(C)=O)CC4)c3C2)cc1	inactive
CCNC(=O)N1CCCC(Cc2noc(-c3ccccc3)n2)C1 (stereo not given)	inconclusive: 12.6 µM [inhibitor, full curve]
O=C1c2cnc(-c3ccccc3)nc2OCCN1c1ccccc1	inconclusive: 12.6 µM [inhibitor, full curve, poor fit]
COc1cc(Nc2ncncc2-c2nc(-c3ccccc3)no2)cc(OC)c1OC	inactive
COc1ccc(CNC(=O)C2CCN(C(=O)c3ncn4c3COC(c3ccccc3)C4)CC2)cc1 (stereo not given)	active: 15.8 µM
COc1ccc2c(c1)CCN=C2C[C@H]1CN(C(=O)Nc2ccccc2)CC[C@H]1CC(=O)O	inconclusive: 89.1 µM [inhibitor, partial curve, poor fit]
CO[C@H]1C(=O)N(C(C)C)[C@H]1C1CCN(C(=O)c2ccc(Cn3nc(C)cc3C)o2)CC1	inconclusive: 39.8 µM [inhibitor, partial curve]
O=C(NC1CCCCCC1)c1ccc2nccn2c1	active: 39.8 µM
Cn1cccc1C(=O)N1CC(Oc2cccc(-c3nc(-c4ccccc4)no3)c2)C1	inconclusive: 14.1 µM [inhibitor, full curve]
O=C(c1n[nH]c2c1CCCC2)N1CCC(n2cc(-c3nc(-c4ccccc4)no3)nn2)CC1	inconclusive: 89.1 µM [inhibitor, partial curve, poor fit]
COc1ccc(C(=O)Nc2ccc(-c3noc([C@@H]4CCCN4Cc4ccc(S(C)(=O)=O)cc4)n3)cn2)cc1	inconclusive: 44.7 µM [inhibitor, partial curve, poor fit]
Cc1ccc(-c2ncc(NC(=O)c3cccs3)cn2)cc1	inconclusive: 0.398 µM [inhibitor, full curve, poor fit]
Cc1ccc2nc([C@H]3CCN(Cc4cccs4)C3)[nH]c2c1	active: 7.08 µM
CC1(COc2cccnc2)COc2ccc(C(=O)Nc3cccc(Cl)c3)cc2N1 (stereo not given)	inconclusive: 39.8 µM [inhibitor, full curve]
Cc1cc(-c2cn(C)c(=O)n3cc(COc4ccccc4)nc23)ccn1	inconclusive: 100 µM [inhibitor, partial curve]
CC(C)CN(C)C(=O)c1cc(-c2cnn(C(C)C)c2)nc2cc(F)ccc12	inconclusive: 35.5 µM [inhibitor, partial curve]
CN(C)C[C@H]1O[C@H](Cc2cc(-c3ccccc3)on2)CC[C@@H]1O	inactive
Cc1ccc(NC(=O)CC2CCOCC2)cc1F	inconclusive: 35.5 µM [inhibitor, partial curve]
CN(C)c1ccc(-c2nnc([C@H]3CCN(C4CCC4)C3)o2)cc1	active: 70.8 µM
CCc1ccc(C(=O)N2CCC(c3n[nH]c(=O)n3Cc3ccc(C)cc3)CC2)cc1	inactive
CC1CCC2(CC1)NC(=O)N(CC(=O)Nc1cccc(C(F)(F)F)c1)C2=O (stereo not given)	inactive
COc1ccc(-c2cc3c(nc2OC)nc(CC2CC2)n3C)cc1OC	inconclusive: 70.8 µM [inhibitor, partial curve]
CC(C)(C(=O)NCCc1cccs1)C1CCOCC1	inconclusive: 44.7 µM [inhibitor, partial curve]

Structure (SMILES)	Potency
CCc1cccc(NC(=O)C2CCN(C(=O)c3ncn4c3COC(c3ccc(F)cc3)C4)CC2)c1 (stereo not given)	inconclusive: 50.1 µM [inhibitor, partial curve]
O=C(c1ccoc1)N1CC(Oc2ccc(-c3nc(-c4ccccc4)no3)cc2)C1	inconclusive: 39.8 µM [inhibitor, partial curve]
CC(C)Nc1ncc(C(=O)NC2CC(=O)N(Cc3cccc(F)c3)C2)cn1 (stereo not given)	inactive
COCCN1CCOc2nc(-c3cccc(OC)c3F)ncc2C1=O	inactive
Cc1ccc(-c2noc([C@@H]3C[C@H](NC(=O)COc4ccccc4)CN3C)n2)cc1	inconclusive: 100 µM [inhibitor, partial curve]
COc1ccc(-c2cc3c(cn2)CN(Cc2cccnc2)CCN3)cc1F	active: 5.01 µM
CCn1cc(S(=O)(=O)N2CCC3(CC2)CC2C(=O)NCCN2C3)cn1 (stereo not given)	inactive
COc1ccc(C)cc1NC(=O)CCC[C@@H]1[C@H]2CCCN3CCC[C@@H](CN1Cc1cccnc1)[C@@H]23	inactive
Cc1ccccc1-c1ccc(COc2ccc3c(cnn3CCC(=O)O)c2)cc1	inconclusive: 17.8 µM [inhibitor, full curve, poor fit]
Cc1nnc(-c2cc(C(=O)NC3CCOCC3)ccn2)n1CCc1ccccc1	inactive
CC(=O)Nc1ccc(S(=O)(=O)N[C@H]2C[C@@H](c3nc(C)no3)N(C)C2)cc1	inactive
COC1CN(c2cccc(F)c2)C12CCN(C(=O)C1CCCCC1)CC2 (stereo not given)	inactive
Cn1cc(-c2cnc(Nc3cnccn3)c3c2CCO3)cn1	inconclusive: 126 µM [inhibitor, partial curve, poor fit]
Cc1ccc(C2Cn3nnc(C(=O)N4CCC(C(=O)Nc5ccc(F)c(F)c5)CC4)c3CO2)cc1 (stereo not given)	active: 39.8 µM
CC(C)CN1C(=O)c2cccn2CC1CNC(=O)c1ccc2ccccc2n1 (stereo not given)	inconclusive: 44.7 µM [inhibitor, partial curve]
c1ccc(-c2ccnc(NCCc3c[nH]c4ccccc34)n2)nc1	active: 8.91 µM
COc1ccc(-c2cc(N3CCCC(NC(=O)c4cc(Cl)ccc4OC)C3)n[nH]2)cc1 (stereo not given)	inconclusive: 20 µM [inhibitor, full curve]
O=C(COc1ccccc1)N1CC2CC(C1)[C@H]1CCCC(=O)N1C2 (stereo not given in full)	inactive
COc1ccc(N2CCN(c3nc(C(=O)N4CCCC(C)C4)cs3)CC2)cc1 (stereo not given)	inconclusive: 44.7 µM [inhibitor, partial curve]
CNC1CCN(c2ccc(-c3nc(CCCc4ccccc4)no3)cn2)CC1	inconclusive: 44.7 µM [inhibitor, partial curve, poor fit]
Oc1cccc(CN(Cc2cn(-c3ccccc3)nn2)C2CC2)c1	inconclusive: 44.7 µM [inhibitor, partial curve]
COc1ccc(NC(=O)N2CCc3c(C(=O)NC(C)C)cccc32)cc1	active: 0.282 µM

Source: PubChem BioAssay AID1347043 (National Center for Advancing Translational Sciences (NCATS), 2019)
